# According to patent US7423058B2, “Inhibitors of hepatitis C virus NS3 protease” (Schering Corporation, priority 2004, dated 2008):
# Target: Recombinant heterodimeric HCV NS3/NS4A protease (strain 1a) (Hepatitis C virus genotype 1a, UniProt P27958)
# Assay: Spectrophotometric assay for HCV protease inhibitory activity (chromogenic ester substrates)
# Assay type: biochemical
# Conditions: Table 1: Ketones; read-out: Ki* Range
# From the text: The present invention relates to novel HCV protease inhibitors. This utility can be manifested in their ability to inhibit the HCV NS2/NS4a serine protease.
# Assay for HCV Protease Inhibitory Activity:
# Spectrophotometric Assay: Spectrophotometric assay for the HCV serine protease can be performed on the inventive compounds by following the procedure described by R. Zhang et al, Analytical Biochemistry, 270 (1999) 268-275, the disclosure of which is incorporated herein by reference. The assay based on the proteolysis of chromogenic ester substrates is suitable for the continuous monitoring of HCV NS3 protease activity. The substrates are derived from the P side of the NS5A-NS5B junction sequence (Ac-DTEDVVX(Nva), where X=A or P) whose C-terminal carboxyl groups are esterified with one of four different chromophoric alcohols (3- or 4-nitrophenol, 7-hydroxy-4-methyl-coumarin, or 4-phenylazophenol). Illustrated below are the synthesis, characterization and application of these novel spectrophotometric ester substrates to high throughput screening and detailed kinetic evaluation of HCV NS3 protease inhibitors. Materials and Methods:
# Materials: Chemical reagents for assay related buffers are obtained from Sigma Chemical Company (St. Louis, Mo.). Reagents for peptide synthesis were from Aldrich Chemicals, Novabiochem (San Diego, Calif.), Applied Biosystems (Foster City, Calif.) and Perseptive Biosystems (Framingham, Mass.). Peptides are synthesized manually or on an automated ABI model 431A synthesizer (from Applied Biosystems). UVNIS Spectrometer model LAMBDA 12 was from Perkin Elmer (Norwalk, Conn.) and 96-well UV plates were obtained from Corning (Corning, N.Y.). The prewarming block can be from USA Scientific (Ocala, Fla.) and the 96-well plate vortexer is from Labline Instruments (Melrose Park, Ill.). A Spectramax Plus microtiter plate reader with monochrometer is obtained from Molecular Devices (Sunnyvale, Calif.).
# Protein concentrations are determined by the Biorad dye method using recombinant HCV protease standards previously quantified by amino acid analysis. Prior to assay initiation, the enzyme storage buffer (50 mM sodium phosphate pH 8.0, 300 mM NaCl, 10% glycerol, 0.05% lauryl maltoside and 10 mM DTT) is exchanged for the assay buffer (25 mM MOPS pH 6.5, 300 mM NaCl, 10% glycerol, 0.05% lauryl maltoside, 5 μM EDTA and 5 μM DTT) utilizing a Biorad Bio-Spin P-6 prepacked column. Substrate Synthesis and Purification: The synthesis of the substrates is done as reported by R. Zhang et al, (ibid.) and is initiated by anchoring Fmoc-Nva-OH to 2-chlorotrityl chloride resin using a standard protocol (K. Barlos et al, Int. J. Pept. Protein Res., 37 (1991), 513-520). The peptides are subsequently assembled, using Fmoc chemistry, either manually or on an automatic ABI model 431 peptide synthesizer. […] The combined filtrate and DCM wash is evaporated azeotropically (or repeatedly extracted by aqueous Na2CO3 solution) to remove the acid used in cleavage. The DCM phase is dried over Na2SO4 and evaporated.
# The ester substrates are assembled using standard acid-alcohol coupling procedures (K. Holmber et al, Acta Chem. Scand., B33 (1979) 410-412). Peptide fragments are dissolved in anhydrous pyridine (30-60 mg/ml) to which 10 molar equivalents of chromophore and a catalytic amount (0.1 eq.) of para-toluenesulfonic acid (pTSA) were added. Dicyclohexylcarbodiimide (DCC, 3 eq.) is added to initiate the coupling reactions. Product formation is monitored by HPLC and can be found to be complete following 12-72 hour reaction at room temperature. Pyridine solvent is evaporated under vacuum and further removed by azeotropic evaporation with toluene.
row,SMILES,Ki [nM]
1,CCCNC(=O)C(=O)C(CCC(F)(F)F)NC(=O)[C@@H]1[C@@H]2[C@H](CN1C(=O)[C@@H](NC(=O)N[C@H](C(=O)C1CC1)C(C)C)C1CCCCC1)C2(C)C (stereo partly shown) [compound 4155],< 75
2,COc1cccc(C(=O)[C@@H](NC(=O)N[C@H](C(=O)N2C[C@H]3[C@@H]([C@H]2C(=O)NC(CC2CC2)C(=O)C(N)=O)C3(C)C)C(C)(C)C)C(C)C)n1 (stereo partly shown) [compound 4072],< 75
3,C=CCNC(=O)C(=O)C(CCC)NC(=O)[C@@H]1[C@@H]2[C@H](CN1C(=O)[C@@H](NC(=O)N[C@H](C(=O)c1cccc(OC)n1)C(C)C)C(C)(C)C)C2(C)C (stereo partly shown) [compound 4134],< 75
4,CCC(CC)[C@H](NC(=O)N[C@H](C(=O)c1ccccc1)C(C)C)C(=O)N1C[C@H]2[C@@H]([C@H]1C(=O)NC(CC1CC1)C(=O)C(N)=O)C2(C)C (stereo partly shown) [compound 4154],< 75
5,CC(C)(C)[C@H](NC(=O)N[C@H](C(=O)N1C[C@H]2[C@@H]([C@H]1C(=O)NC(CC1CC1)C(=O)C(N)=O)C2(C)C)C(C)(C)C)C(=O)C1CC1 (stereo partly shown) [compound 4057],< 75
6,CC(C)[C@H](NC(=O)N[C@H](C(=O)N1C[C@H]2[C@@H]([C@H]1C(=O)NC(CC1CC1)C(=O)C(N)=O)C2(C)C)C(C)(C)C)C(=O)Cc1ccccc1 (stereo partly shown) [compound 4011],< 75
7,CC(C)(C)[C@H](NC(=O)NC1(C(=O)c2ccccc2)CCCCC1)C(=O)N1C[C@H]2[C@@H]([C@H]1C(=O)NC(CC1CC1)C(=O)C(N)=O)C2(C)C (stereo partly shown) [compound 4183],76 to 250

# Same assay, conditions: Table 3, Esters; read-out: Ki* Range
row,SMILES,Ki [nM]
1,CC(C)(C)[C@H](NC(=O)N[C@H](C(=O)N1C[C@H]2[C@@H]([C@H]1C(=O)NC(CC1CC1)C(=O)C(N)=O)C2(C)C)C(C)(C)C)C(=O)OC1CCOC1 (stereo partly shown) [compound 4408],< 75
2,CC(C)(C)[C@H](NC(=O)NC1(C(=O)OCc2ccccc2)CCCCC1)C(=O)N1C[C@H]2[C@@H]([C@H]1C(=O)NC(CC1CCC1)C(=O)C(N)=O)C2(C)C (stereo partly shown) [compound 4540],76 to 250
3,CC(C)(C)[C@H](NC(=O)NC1(C(=O)OCc2ccccc2)CC2CCC1C2)C(=O)N1C[C@H]2[C@@H]([C@H]1C(=O)NC(CC1CCC1)C(=O)C(N)=O)C2(C)C (stereo partly shown) [compound 4502],< 75
4,C[C@H](OC(=O)[C@@H](NC(=O)N[C@H](C(=O)N1C[C@H]2[C@@H]([C@H]1C(=O)NC(CC1CC1)C(=O)C(N)=O)C2(C)C)C(C)(C)C)C(C)(C)C)c1ccccc1 (stereo partly shown) [compound 4338],< 75
5,CC(C)(C)[C@H](NC(=O)NC1(C(=O)OCc2cc[n+]([O-])cc2)CCCCC1)C(=O)N1C[C@H]2[C@@H]([C@H]1C(=O)NC(CC1CC1)C(=O)C(N)=O)C2(C)C (stereo partly shown) [compound 4563],76 to 250
6,CC(C)(C)[C@H](NC(=O)NC1(C(=O)OCc2ccccc2)CCCCC1)C(=O)N1C[C@H]2[C@@H]([C@H]1C(=O)NC(CCC(F)(F)F)C(=O)C(N)=O)C2(C)C (stereo partly shown) [compound 4535],< 75
7,CNC(=O)C(=O)C(CCC(F)(F)F)NC(=O)[C@@H]1[C@@H]2[C@H](CN1C(=O)[C@@H](NC(=O)N[C@H](C(=O)OC1CCC1)C(C)(C)C)C(C)(C)C)C2(C)C (stereo partly shown) [compound 4607],76 to 250
8,CC(C)(C)[C@H](NC(=O)N[C@@H](C(=O)OCc1ccccc1)C(C)(C)C)C(=O)N1C2CCC(C2)[C@H]1C(=O)NC(CC1CC1)C(=O)C(N)=O (stereo partly shown) [compound 4603],76 to 250
9,CC(C)[C@H](NC(=O)N[C@H](C(=O)N1C[C@H]2[C@@H]([C@H]1C(=O)NC(CC1CC1(F)F)C(=O)C(N)=O)C2(C)C)C(C)(C)C)C(=O)OC(C)(C)C (stereo partly shown) [compound 4361],< 75
10,C=CCNC(=O)C(=O)C(CC1CC1)NC(=O)[C@@H]1[C@@H]2[C@H](CN1C(=O)[C@@H](NC(=O)N[C@H](C(=O)OC(C)(C)C)C(C)C)C(C)(C)C)C2(C)C (stereo partly shown) [compound 4468],< 75

# Same assay, conditions: Table 6; read-out: Ki* range
row,SMILES,Ki [nM]
1,CC1(C)[C@@H]2[C@@H](C(=O)NC(CC3CC3)C(=O)C(N)=O)N(C(=O)[C@@H](NC(=O)NC3(Cc4cccs4)CCCCC3)C3CCCCC3)C[C@@H]21 (stereo partly shown) [compound 4938],< 75

# Same assay, conditions: Table 8; read-out: Ki*
row,SMILES,Ki [nM]
1,CC(C)[C@H](NC(=O)N[C@H](C(=O)N1C[C@H]2[C@@H]([C@H]1C(=O)NC(CC1CC1)C(=O)C(N)=O)C2(C)C)C(C)(C)C)C(=O)OC(C)(C)C (stereo partly shown) [drawing 1474],22
